Assay results: the supplement of paper PMC12632987
Whole data set: some 4,500 sequences, median “median log2 fold change of GCK-ALFA target abundance (FLAG IP / Myc IP barcode read proportion)” near 0.078, cut for the lowest 2% near -0.6. This is one part of the list.

B1: GBRAP_26_5451 (protein)
chain: MEELLERFRERLERAADELLDPETAALLKVAVDDIIALAELELEEANGDLEKELEIVEEMLEDLEEELEDLEVPEEVREKLLEIAREEAEEIKKALKEER
B2: GBRAP_160_4349 (protein)
chain: SERVEELIKRIREAAEEVIEALDEVSVEEAAVLAAGEFGAVAMEAAEDERMSDEMVDAIIDGRDRAVAAFRAGADASREELKRRLREITEETIEELKKIA
B3: GBRAP_195_5407 (protein)
chain: MKVESAVLRVTADDTPAQIQAKIDAIVARVAAETGADLVLVVARDPSVPESVVRAAVAAAEARYPGIKITVEIFDDISLPEETLQKFAEMERLNLEEEKE
B4: GBRAP_160_4764 (protein)
chain: KEELKKLKKEIEEIFEEHIELLKEVPKEEAVTIVRGAMGEVLMLVMSSEAASDELEEKIGEIADEAEEEAKKNKDAPVEVHIEILEKAKKEILELIEKEI
B5: GBRAP_128_3500 (protein)
chain: SREEAVARTRELMARIAEASPEETRALTRELVALMASVDRETAEAMADAALERLPELSAEALDVVADTLRELRPTVDPFIARLLADIQVEALNELEEKEE
B6: GBRAP_52_6145 (protein)
chain: MVEELVELFLKAVEAKKAGDEEEKKKYIEEAAKLMKEMTEEEIEEAAREAVARVPKEDLDVVMEVALELGDKMEELGVDERKVAAFLGAAAAAAYEKELA
B7: GBRAP_137_3646 (protein)
chain: PNVTITKETIDDLVEINIEFDDPEKAEEAAELIRDVAHEHGALAVSIEINEDGTLEATIWVPKDKAQALIDALVTRLRTELGANVTVIDKDTGETTVVKA
B8: GBRAP_160_4431 (protein)
chain: SEKVEKAKKEIDELFDEALEMMKGQSAEQRIVVIDVTEGEVKLMLEELGLLTDEIDKVIDDTFAAIKAYVAAHPDISQEELAALLDAAAAKIKEALEKAS
B9: GBRAP_39_5631 (protein)
chain: EEEEELELLESYAEAELAKRQVETGLAPDELYARLLAEARALAADDPELLAAINRLDALAAEHGPEAREKLAAALAALLAGLPKEDILRLLNALIEELEA
B10: GBRAP_52_6159 (protein)
chain: SEERARAMADEILAAVRAGDEERLEELLRRAARELSQEELVLMMEHIAEAVAGLSPEEAERVVEAAIRFEDLAVAAGHDEELLSYQLARVAAAAYKQIQA
B11: GBRAP_14_3834 (protein)
chain: MELVERVLREAAERIARELAELAGLDYEEVLRRMREVVEEALELYRKTGNLEEALRHFEERAVRTVRELLADKPPELQAQAEAIVRVEVGEARLELEEEE
B12: GBRAP_184_5120 (protein)
chain: EVVRRAVEGEKAEELIAKAEAVVAEAAAAGKRLFLAVFAENMSVEEIIEVIKHLGELKKAHPEVEIVLVVENELSDEEIDKVVEAADEAGVRVVVAIKEE
B13: GBRAP_52_6101 (protein)
chain: AAAEAEALVERLLALVRAGREAEARAEAAALAAEMDEARLRVLTEALAARARAAAPEDLDAVWRLAELLADELEAAGWPDVLVDDLLAATAAALYERELA
B14: GBRAP_78_6656 (protein)
chain: ELEKLLDEADEKARELRKLAKKVDPELANLAAETDVLVGEAIYLYEIEKASPEEIKEELEEAKKAAEELLKLAEKKDKEVAKLAKELIKLLEKAIKELKK
B15: GBRAP_139_3751 (protein)
chain: SALEERIARARALAEQIPEDPEGSIAALADLMNSVNEEDAERIARAAAEVLRGLPFDEFEAYFDALIDTLRTKHNNEDLADIAEAEMNRALAQIAVEEEA
B16: GBRAP_11_2837 (protein)
chain: KKEKLKEIAEKAREVAKELDALIASGAPTKEELEELLKKVEELLKLAEELGDESLVKLAKIALEEVKEAIADPATQLQHLKNALAAVRVLEGQALLEYDE
B17: GBRAP_125_3042 (protein)
chain: AEEEAIEALAALAKIFGLSEEEVEELKRLAREYGVKGALIALLLAEGLEELAELAARLSEEAVREVLAEFLAWLKAHPDITREEAVEELERLLREALERE
B18: GBRAP_11_2657 (protein)
chain: KKEVYEEAAELARRAAEALERLIATGVDDEELIAEARELIERLRELAEKHLDEATRSEVEVVVELWEEFLADPANAEQLAKELLAGVRVLEGNLLLEADE
B19: GBRAP_52_6326 (protein)
chain: MEEEIKKLAEELVAAIKAGDEEEAKKLAEEAVEKLSSEGILKLAKLVAEAVAKEDYETQVRATEVFDYLAELVIEKRGDERTAAEILGIAATTFYAAEQA

The binders below were run against GABARAP, O95166 (assay: median log2 fold change of GCK-ALFA target abundance (FLAG IP / Myc IP barcode read proportion) (log2 ratio); each designed protein is fused to an ALFA-tag nanobody in HEK293 cells to bring the named protein to FLAG-tagged glucokinase (GCK); Myc marks an untargeted standard; higher = target protein stabilised (more abundant)). Conditions: target protein: 3xFLAG-MCP-GCK-ALFA reporter; HEK293 landing pad (RPLP).
Sequence of GABARAP, O95166 (O95166 whole entry, the tested form may be a part): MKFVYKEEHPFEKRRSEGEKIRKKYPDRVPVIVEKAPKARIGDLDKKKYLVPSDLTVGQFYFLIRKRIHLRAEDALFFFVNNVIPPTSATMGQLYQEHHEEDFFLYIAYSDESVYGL
Summary of the method: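 Sequencing of reverse-transcribed, amplified circular RNA barcodes from anti-FLAG and anti-Myc immunoprecipitates provided the readout for an ALFA-nanobody-fused binder library recombined into HEK293 landing-pad cells. Those cells were induced with 2 μg mL^−1 doxycycline, transfected with a plasmid expressing a FLAG-tagged target and a Myc-tagged standard, and lysed after 48 h. Target abundance is the per-binder median log2 ratio of FLAG to Myc barcode read proportions. Only barcodes at a proportion of ≥10^−7 in both replicates and binders with ≥3 barcodes per replicate were kept, with a 10^−6 pseudocount added before the two replicates were pooled.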

Row | Binder | median log2 fold change
1 | B1 | -1.2
2 | B2 | 0.153
3 | B3 | 0.297
4 | B4 | 0.164
5 | B5 | 0.333
6 | B6 | 0.183
7 | B7 | -0.0128
8 | B8 | 0.227
9 | B9 | 0.3
10 | B10 | 0.0877
11 | B11 | 0.174
12 | B12 | 0.158
13 | B13 | -0.279
14 | B14 | -0.0422
15 | B15 | 0.212
16 | B16 | 0.179
17 | B17 | -0.178
18 | B18 | 0.177
19 | B19 | 0.231
